Test results as given in the supplement of paper PMC12217912.
The list shows a part of the results. The full chains were built here from the parent and the listed change. Inactive controls read about 0.05.

B1: TEV protease; numbered along this chain (parent)
chain: MGESLFKGPRDYNPISSSICHLTNESDGHTTSLYGIGFGPFIITNKHLFRRNNGTLVVQSLHGVFKVKDTTTLQQHLVDGRDMIIIRMPKDFPPFPQKLKFREPQREERICLVTTNFQTKSMSSMVSDTSCTFPSGDGIFWKHWIQTKDGQCGSPLVSTRDGFIVGIHSASNFTNTNNYFTSVPKNFMELLTNQEAQQWVSGWRLNADSVLWGGHKVFMVKPEEPFQPVKEATQL

Variants of: B1
Experiment: raw area under fraction-flipped curve 0-4 h after induction (AUC4h, not background-subtracted), DNA-recorder readout of cleavage of the substrate (dimensionless); higher = more cleavage of the substrate by the protease variant
Settings: temperature: 34 °C; time window: 0-4 h after rhamnose induction
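Also: Bxb1 expression induced with 0.2% (w/v) L-rhamnose at OD600 near 0.5, cultures sampled hourly, flipped fraction per protease–substrate barcode pair counted by paired-end Illumina sequencing.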

Variant | area with substrate ENLDFQS | area with substrate ENLEFQS | area with substrate ENLFFQS | area with substrate ENLHFQS | area with substrate ENLKFQS | area with substrate ENLNFQS | area with substrate ENLQFQS | area with substrate ENLRFQS | area with substrate ENLTFQS | area with substrate ENLWFQS | area with substrate ENLIFQS | area with substrate ENLPFQS | area with substrate ENLSFQS | area with substrate ENLVFQS | area with substrate ENLLFQS | area with substrate ENLGFQS | area with substrate ENLMFQS
G202P | 0.0616 | 0.0723 | 0.0619 | 0.0601 | 0.0671 | 0.0528 | 0.0687 | 0.0567 | 0.055 | 0.0544 | – | – | – | – | – | – | –
S123R | 0.0614 | 0.0144 | 0.111 | – | 0.0848 | 0.0671 | 0.0605 | 0.0818 | – | – | 0.108 | 0.0642 | 0.0724 | 0.0925 | – | – | –
F133A | 0.0609 | 0.062 | 0.0999 | 0.0684 | 0.0724 | – | 0.0871 | – | 0.079 | – | – | – | 0.0757 | – | 0.0685 | – | –
V217I | 0.066 | – | 0.114 | 0.0642 | 0.0794 | 0.0648 | 0.0864 | 0.0735 | 0.0975 | – | – | 0.0793 | – | – | – | 0.0723 | 0.0692
V217T | 0.0845 | – | 0.119 | 0.077 | 0.0642 | – | 0.0854 | 0.0507 | – | 0.0538 | 0.0602 | 0.0593 | – | – | – | – | –
V217S | 0.079 | 0.074 | 0.0802 | 0.0593 | – | 0.0592 | 0.0604 | 0.0615 | – | 0.0596 | 0.0511 | 0.0448 | 0.06 | – | – | – | 0.0633
L205T | 0.0574 | – | – | – | – | 0.0749 | – | – | – | – | – | – | – | – | – | – | 0.044
S171Q | 0.0605 | 0.0429 | 0.0717 | 0.0899 | – | 0.0703 | 0.0611 | – | – | – | 0.0703 | 0.0653 | 0.0618 | 0.0623 | 0.0597 | – | –
T129G | 0.0622 | – | 0.101 | 0.0744 | 0.0677 | – | 0.0959 | 0.0761 | – | 0.079 | – | – | – | – | 0.0663 | – | –
F140Q | 0.0652 | 0.0573 | 0.0565 | 0.0625 | 0.0708 | – | – | 0.0655 | – | 0.0457 | – | 0.056 | – | 0.0931 | – | – | –
Q197T | 0.0681 | – | 0.105 | – | – | – | – | – | – | – | 0.0634 | 0.0546 | – | – | 0.0668 | – | –
S124N | 0.0593 | – | – | – | – | – | 0.0649 | 0.0757 | – | – | 0.0863 | – | 0.0815 | – | – | – | –
M219N | 0.0675 | – | 0.0636 | – | – | – | 0.0587 | – | – | 0.0683 | 0.0523 | – | – | 0.0895 | 0.0503 | – | –
T119D | 0.0764 | – | 0.115 | 0.0885 | 0.0096 | 0.0512 | 0.0578 | – | – | – | – | 0.0567 | – | – | – | 0.0875 | –
L190A | 0.059 | 0.0929 | 0.0811 | – | 0.0819 | 0.0707 | 0.0536 | 0.0691 | 0.0783 | 0.0321 | – | 0.0675 | 0.0424 | – | – | – | –
A207H | 0.0507 | – | – | 0.0841 | – | 0.0501 | 0.0622 | – | – | 0.0632 | 0.0913 | 0.0664 | 0.0702 | – | 0.0613 | 0.0799 | –
T147K | 0.0588 | 0.0668 | 0.0634 | 0.0688 | 0.068 | 0.0628 | – | – | – | 0.0565 | 0.0647 | 0.0766 | 0.0579 | – | – | – | –
W203I | 0.0345 | 0.0482 | 0.0585 | 0.0671 | 0.0593 | 0.0572 | – | – | – | – | 0.0609 | – | 0.0653 | – | 0.0631 | – | –
K142A | 0.0703 | 0.0586 | 0.0727 | 0.0841 | 0.0917 | – | – | 0.0552 | 0.0951 | 0.066 | – | 0.0493 | 0.0682 | 0.0675 | 0.0587 | – | –

Variant | area with substrate ENLDFQS | area with substrate ENLEFQS | area with substrate ENLFFQS | area with substrate ENLHFQS | area with substrate ENLKFQS | area with substrate ENLNFQS | area with substrate ENLQFQS | area with substrate ENLRFQS | area with substrate ENLTFQS | area with substrate ENLWFQS | area with substrate ENLIFQS | area with substrate ENLPFQS | area with substrate ENLSFQS | area with substrate ENLVFQS | area with substrate ENLLFQS | area with substrate ENLGFQS | area with substrate ENLMFQS
S127W | 0.0398 | 0.0543 | 0.0848 | 0.0687 | 0.0832 | 0.0631 | 0.0716 | 0.0778 | – | – | 0.111 | 0.0621 | 0.0686 | – | 0.0786 | 0.0512 | 0.0647
E224G | 0.0599 | 0.0578 | – | 0.0618 | – | 0.0684 | – | 0.0746 | – | 0.0548 | 0.0925 | 0.0483 | 0.0617 | – | 0.0758 | 0.0685 | –
Q194Y | 0.0529 | 0.0891 | 0.0796 | 0.0617 | – | 0.0645 | 0.0533 | 0.0862 | – | – | – | 0.0443 | 0.0656 | – | – | – | –
F218M | 0.0685 | – | – | 0.0546 | 0.0507 | 0.0697 | – | – | – | 0.0704 | – | – | 0.0596 | – | 0.06 | – | –
K185H | 0.0762 | 0.0627 | 0.0759 | 0.102 | – | – | – | – | – | – | 0.0921 | – | – | – | 0.101 | – | 0.0759
L191E | 0.0586 | 0.0482 | 0.0667 | 0.0683 | – | 0.069 | 0.052 | 0.0571 | – | – | – | 0.0371 | 0.0471 | 0.0648 | – | – | 0.0583
L191S | 0.0234 | – | 0.0556 | – | 0.0669 | – | – | 0.0855 | – | – | – | – | 0.0521 | – | – | – | –
V210H | 0.0758 | 0.0674 | 0.0633 | 0.062 | – | 0.0351 | – | 0.0506 | – | 0.0583 | 0.0688 | 0.0699 | 0.0702 | 0.0675 | – | 0.0675 | –
V210R | 0.0693 | – | 0.0648 | 0.0439 | 0.0617 | 0.0671 | 0.069 | 0.0596 | – | 0.0506 | – | 0.0411 | – | 0.0571 | 0.0627 | 0.0653 | 0.0672
H215P | 0.0618 | 0.0554 | 0.0597 | 0.0614 | 0.0661 | 0.0577 | 0.0668 | – | – | – | 0.058 | – | 0.0628 | 0.0816 | 0.0574 | – | 0.064
M125P | 0.0278 | – | – | – | 0.0796 | 0.0542 | – | – | – | – | – | – | 0.0517 | – | – | – | –
M125C | 0.0657 | 0.0791 | 0.0759 | – | 0.106 | – | 0.0685 | 0.103 | – | 0.0628 | 0.0746 | 0.0699 | 0.0495 | – | – | – | 0.0738
M125A | 0.0723 | – | 0.0902 | – | 0.0649 | 0.0467 | 0.0802 | – | – | 0.0659 | 0.0808 | 0.0423 | 0.0643 | – | – | – | –
K221W | 0.0531 | – | 0.059 | – | 0.0871 | 0.0617 | 0.064 | 0.0784 | – | – | 0.0615 | – | 0.0529 | 0.0839 | – | 0.075 | –
K221G | 0.0683 | 0.11 | 0.0785 | 0.0661 | 0.0777 | 0.0643 | – | – | – | 0.0583 | – | – | – | – | 0.0543 | – | –
S154Y | 0.0621 | 0.0674 | 0.0674 | 0.0554 | 0.0706 | 0.066 | – | – | – | – | – | – | 0.0712 | – | 0.0595 | – | –
G162I | 0.0575 | – | 0.0852 | – | – | 0.0587 | – | 0.0795 | – | – | 0.054 | 0.0579 | 0.0472 | – | 0.0583 | – | –
Q118R | 0.0677 | 0.0808 | 0.0997 | 0.0711 | 0.0826 | 0.0654 | 0.0595 | – | – | – | 0.0856 | 0.0588 | – | – | 0.0665 | – | –
